The list shows a part of the results. At the low end of the ranking the order means little.

This assay has as its target GST-SBP-SLBP (stem-loop binding protein) (UniProt Q14493). As to the kind of experiment: targeted RNA Bind-n-Seq.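 Further: DESeq read counts versus GST-SBP nonspecific binding control pulldown.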 Particulars: RBNS binding buffer: 25 mM Tris pH 7.5, 150 mM KCl, 3 mM MgCl2, 0.1% Tween, 0.5 mg/mL BSA, 1 mM DTT; 27 nM protein, 750 pM RNA pool; temperature not stated; high values mean tight binding.
As to “GGUCACGUCUCAAUCAACUCUUCCCCCAGGGAAACCCCUGGCAUACUCAACAGCUCGCAGUCAAG”, the binding signal (log2 fold change) is -0.267.
As to “GGUCACGUCUCAAUCAACUCUUUCUCCAGGGAAAUCCCUGGCAUACUCAACAGCUCGCAGUCAAG”, the binding signal (log2 fold change) is -0.0648.
Take “GGUCACGUCUCAAUCAACUCAAUAGAGGGGGGGAAAACCCCUUUGCCCUCCAAUUCAACAGCUCGCAGUCAAG”: the binding signal (log2 fold change) is -0.189.
Regarding “GGUCACGUCUCAAUCAACUCAGUCUCCAGGGAAAACCCUGGCUAUCUCAACAGCUCGCAGUCAAG”, the binding signal (log2 fold change) is -0.256.
The same measure for “GGUCACGUCUCAAUCAACUCAAUCCCCAGGGAAAACCCUGGCUAUCUCAACAGCUCGCAGUCAAG”: -0.138; for “GGUCACGUCUCAAUCAACUCUAUCCCCAGGGAAAACCCUGGCAUUUUCAACAGCUCGCAGUCAAG”: -0.127; for “GGUCACGUCUCAAUCAACUCAUUCCCCAGGGAAAUCCCUGGCAAACUCAACAGCUCGCAGUCAAG”: 0.202.
In the case of “GGUCACGUCUCAAUCAACUCCAAAGAGGGGGGGAAAACCCCUUUGCCCUCAUUCUCAACAGCUCGCAGUCAAG”, the binding signal (log2 fold change) worked out at 0.342.
For “GGUCACGUCUCAAUCAACUCAUUUUCAGGAGUUUACUCCUGUUUUCUCAACAGCUCGCAGUCAAG” the value was 0.0542; for “GGUCACGUCUCAAUCAACUCUUCCCCCAGGGAAACCCCUGGCUAACUCAACAGCUCGCAGUCAAG”, -0.0411; for “GGUCACGUCUCAAUCAACUCAAGUCCCAGGGAAAUCCCUGGUAAAUUCAACAGCUCGCAGUCAAG”, -0.0246.
For “GGUCACGUCUCAAUCAACUCUAGUCCAGGAGUUUCCUCCUGCUUUUUCAACAGCUCGCAGUCAAG” the value was -0.0403; for “GGUCACGUCUCAAUCAACUCUUCCCCAGGAGUUUCCUCCUGUUUUCUCAACAGCUCGCAGUCAAG”, 0.00672.
The same measure for “GGUCACGUCUCAAUCAACUCAAUCCCAGGAGUUUCCUCCUGUAAACUCAACAGCUCGCAGUCAAG”: 0.0247; for “GGUCACGUCUCAAUCAACUCUUCAGAGGGGGGGAAAACCCCUUUGCCCUCCAAUUCAACAGCUCGCAGUCAAG”: -0.07; for “GGUCACGUCUCAAUCAACUCUUAAGAGGGGGGGAAAACCCCUUUACCCUCACCAUCAACAGCUCGCAGUCAAG”: -0.275.
“GGUCACGUCUCAAUCAACUCAUCGUCAGGAGUUUACUCCUGUAAUUUCAACAGCUCGCAGUCAAG”: the binding signal (log2 fold change) was 0.171.
“GGUCACGUCUCAAUCAACUCUCUAGAGGGGGGGAAAACCCCUUUACCCUCGUAAUCAACAGCUCGCAGUCAAG”: the binding signal (log2 fold change) is -0.177.
“GGUCACGUCUCAAUCAACUCCUUCGAGGGGGGGAAAACCCCUUUACCCUCCAUUUCAACAGCUCGCAGUCAAG”: the binding signal (log2 fold change) is -0.177.
For “GGUCACGUCUCAAUCAACUCAAUCCCAGGAGUUUGCUCCUGCUUUCUCAACAGCUCGCAGUCAAG” the value was 0.0349.
As for “GGUCACGUCUCAAUCAACUCUUUCCCAGGAGUUUCCUCCUGCAUUUUCAACAGCUCGCAGUCAAG”, the binding signal (log2 fold change) is -0.0132.
The same measure for “GGUCACGUCUCAAUCAACUCAUCAGAGGGGGGGAAAACCCCUUUGCCCUCAAAUUCAACAGCUCGCAGUCAAG”: 0.00202; for “GGUCACGUCUCAAUCAACUCAUCCCCAGGAGUUUUCUCCUGCAAUUUCAACAGCUCGCAGUCAAG”: 0.122; for “GGUCACGUCUCAAUCAACUCUACUUCAGGAGUUUCCUCCUGUAUAUUCAACAGCUCGCAGUCAAG”: -0.121.
The same measure for “GGUCACGUCUCAAUCAACUCAAACGAGGGGGGGAAAACCCCUUUACCCUCAACAUCAACAGCUCGCAGUCAAG”: -0.0352.
For “GGUCACGUCUCAAUCAACUCUUCGCCAGGAGUUUUCUCCUGCUUAUUCAACAGCUCGCAGUCAAG” the value was 0.203; for “GGUCACGUCUCAAUCAACUCAUCCCCAGGAGUUUCCUCCUGUUUUCUCAACAGCUCGCAGUCAAG”, 0.142; for “GGUCACGUCUCAAUCAACUCUAUUUCCAGGGAAACCCCUGGUAUAUUCAACAGCUCGCAGUCAAG”, -0.0331.
In the case of “GGUCACGUCUCAAUCAACUCAAUCCCCAGGGAAAACCCUGGUUAAUUCAACAGCUCGCAGUCAAG”, the binding signal (log2 fold change) came out at 0.231.
With “GGUCACGUCUCAAUCAACUCUUUCCCCAGGGAAAUCCCUGGUUAUCUCAACAGCUCGCAGUCAAG”, the binding signal (log2 fold change) is -0.0411.
On to “GGUCACGUCUCAAUCAACUCUUUCCCAGGAGUUUUCUCCUGCUUAUUCAACAGCUCGCAGUCAAG”, for which the binding signal (log2 fold change) stood at 0.0673.
For “GGUCACGUCUCAAUCAACUCAAACGAGGGGGGGAAAACCCCUUUACCCUCACAUUCAACAGCUCGCAGUCAAG” the value was -0.0422; for “GGUCACGUCUCAAUCAACUCAACGCCAGGAGUUUCCUCCUGUAUUUUCAACAGCUCGCAGUCAAG”, 0.0289; for “GGUCACGUCUCAAUCAACUCAUUCCCCAGGGAAAGCCCUGGUUUUUUCAACAGCUCGCAGUCAAG”, -0.0834.
Take “GGUCACGUCUCAAUCAACUCAAUGGCAGGAGUUUACUCCUGGAAUCUCAACAGCUCGCAGUCAAG”: the binding signal (log2 fold change) was -0.00586.
As to “GGUCACGUCUCAAUCAACUCAUCCUCCAGGGAAAACCCUGGUAUUCUCAACAGCUCGCAGUCAAG”, the binding signal (log2 fold change) is -0.0695.
For the sequence “GGUCACGUCUCAAUCAACUCUUUUUCCAGGGAAAACCCUGGUUAAUUCAACAGCUCGCAGUCAAG”, the binding signal (log2 fold change) was 0.015.
Take “GGUCACGUCUCAAUCAACUCAAUUCCAGGAGUUUACUCCUGUAUUCUCAACAGCUCGCAGUCAAG”: the binding signal (log2 fold change) is -0.0534.
As for “GGUCACGUCUCAAUCAACUCAACUUCCAGGGAAACCCCUGGUUUAUUCAACAGCUCGCAGUCAAG”, the binding signal (log2 fold change) turned out to be 0.146.
For “GGUCACGUCUCAAUCAACUCCAAAGAGGGGGGGAAAACCCCUUUGCCCUCAAACUCAACAGCUCGCAGUCAAG” the value was 0.0497; for “GGUCACGUCUCAAUCAACUCAUCCCCAGGAGUUUACUCCUGUUAUCUCAACAGCUCGCAGUCAAG”, -0.00656.
For “GGUCACGUCUCAAUCAACUCUAAGGAGGGGGGGAAAACCCCUUUACCCUCAAAAUCAACAGCUCGCAGUCAAG” the value was -0.039; for “GGUCACGUCUCAAUCAACUCUUUCCCCAGGGAAACCCCUGGCUAUUUCAACAGCUCGCAGUCAAG”, -0.0706.
For “GGUCACGUCUCAAUCAACUCUAUCCCAGGAGUUUCCUCCUGCAAACUCAACAGCUCGCAGUCAAG” the value was 0.268.
For “GGUCACGUCUCAAUCAACUCUUUAGAGGGGGGGAAAACCCCUUUACCCUCCGUAUCAACAGCUCGCAGUCAAG”, the binding signal (log2 fold change) was determined as 0.131.
For “GGUCACGUCUCAAUCAACUCAACUCCAGGAGUUUACUCCUGCAUUUUCAACAGCUCGCAGUCAAG” the value was -0.0964; for “GGUCACGUCUCAAUCAACUCUAUCUCCAGGGAAAUCCCUGGUAUAUUCAACAGCUCGCAGUCAAG”, -0.225; for “GGUCACGUCUCAAUCAACUCUCUAGAGGGGGGGAAAACCCCUUUGCCCUCAUCAUCAACAGCUCGCAGUCAAG”, -0.307.
Consider “GGUCACGUCUCAAUCAACUCAUCCCCCAGGGAAAUCCCUGGUAUUUUCAACAGCUCGCAGUCAAG”, for which the binding signal (log2 fold change) is -0.0866.
For “GGUCACGUCUCAAUCAACUCAUCUUCAGGAGUUUUCUCCUGUUUAGUCAACAGCUCGCAGUCAAG” the value was 0.209.
For “GGUCACGUCUCAAUCAACUCUAUUCCAGGAGUUUACUCCUGCAUUUUCAACAGCUCGCAGUCAAG”, the binding signal (log2 fold change) is 0.131.
In the case of “GGUCACGUCUCAAUCAACUCAGUUUCAGGAGUUUACUCCUGCUAUCUCAACAGCUCGCAGUCAAG”, the binding signal (log2 fold change) came to 0.111.
Take “GGUCACGUCUCAAUCAACUCAGUUUCAGGAGUUUUCUCCUGUUUAUUCAACAGCUCGCAGUCAAG”: the binding signal (log2 fold change) is 0.0522.
Consider “GGUCACGUCUCAAUCAACUCUAUCUCCAGGGAAAGCCCUGGCAAUCUCAACAGCUCGCAGUCAAG”, for which the binding signal (log2 fold change) was determined as 0.0282.
For “GGUCACGUCUCAAUCAACUCCAUAGAGGGGGGGAAAACCCCUUUGCCCUCGUCAUCAACAGCUCGCAGUCAAG” the value was 0.00701.
Consider “GGUCACGUCUCAAUCAACUCUUUCGCCAGGGAAAACCCUGGGUAUCUCAACAGCUCGCAGUCAAG”, for which the binding signal (log2 fold change) was -0.21.
With “GGUCACGUCUCAAUCAACUCAUUCCCAGGAGUUUGCUCCUGCUUUUUCAACAGCUCGCAGUCAAG”, the binding signal (log2 fold change) was determined as 0.176.
For “GGUCACGUCUCAAUCAACUCAUCGUCCAGGGAAAACCCUGGUUAUUUCAACAGCUCGCAGUCAAG” the value was -0.186; for “GGUCACGUCUCAAUCAACUCAUCUUCCAGGGAAAACCCUGGUAUUCUCAACAGCUCGCAGUCAAG”, 0.229; for “GGUCACGUCUCAAUCAACUCAAUCGAGGGGGGGAAAACCCCUUUACCCUCUCAAUCAACAGCUCGCAGUCAAG”, -0.242.
The same measure for “GGUCACGUCUCAAUCAACUCAUUCCCCAGGGAAACCCCUGGUUAACUCAACAGCUCGCAGUCAAG”: 0.0338; for “GGUCACGUCUCAAUCAACUCAUCUUCCAGGGAAACCCCUGGCUUAUUCAACAGCUCGCAGUCAAG”: 0.136.
For “GGUCACGUCUCAAUCAACUCUAUCUCCAGGGAAAACCCUGGUUUACUCAACAGCUCGCAGUCAAG” the value was 0.012.
For “GGUCACGUCUCAAUCAACUCUAUUCCCAGGGAAAACCCUGGCUUUUUCAACAGCUCGCAGUCAAG”, the binding signal (log2 fold change) is 0.126.
For “GGUCACGUCUCAAUCAACUCUUCUUCAGGAGUUUCCUCCUGCUUUCUCAACAGCUCGCAGUCAAG” the value was 0.0767; for “GGUCACGUCUCAAUCAACUCAUUUUCAGGAGUUUGCUCCUGCAAUCUCAACAGCUCGCAGUCAAG”, -0.0115.
“GGUCACGUCUCAAUCAACUCAAUCCCCAGGGAAAACCCUGGUAUUUUCAACAGCUCGCAGUCAAG”: the binding signal (log2 fold change) is -0.245.
Turning to “GGUCACGUCUCAAUCAACUCAACUCCCAGGGAAAUCCCUGGUUAUCUCAACAGCUCGCAGUCAAG”, the binding signal (log2 fold change) was found to be 0.334.
For “GGUCACGUCUCAAUCAACUCUUUUUCCAGGGAAAACCCUGGUUUUCUCAACAGCUCGCAGUCAAG” the value was 0.169.
For the sequence “GGUCACGUCUCAAUCAACUCUAUCCCAGGAGUUUCCUCCUGUAAAUUCAACAGCUCGCAGUCAAG”, the binding signal (log2 fold change) is -0.146.
In the case of “GGUCACGUCUCAAUCAACUCUUUUUCAGGAGUUUACUCCUGUAUUUUCAACAGCUCGCAGUCAAG”, the binding signal (log2 fold change) worked out at 0.0314.
The same measure for “GGUCACGUCUCAAUCAACUCAUCUCCAGGAGUUUCCUCCUGUUUAGUCAACAGCUCGCAGUCAAG”: -0.0683.
Regarding “GGUCACGUCUCAAUCAACUCAUUUUCCAGGGAAAGCCCUGGUUAUCUCAACAGCUCGCAGUCAAG”, the binding signal (log2 fold change) came to 0.0553.
The same measure for “GGUCACGUCUCAAUCAACUCAAUCCCCAGGGAAACCCCUGGUAUUUUCAACAGCUCGCAGUCAAG”: -0.45.
